In article PMC3660575, “The Intracellular Domain of Sortilin Interacts with Amyloid Precursor Protein and Regulates Its Lysosomal and Lipid Raft Trafficking” (PLoS ONE, 2013):

Target: T1, APP770-YFP (human, UniProt P05067-1)
T1 construct: human amyloid precursor protein, the isoform named APP770; Plasmid was a gift (Prof. Goldstein, UCSD); the construct is not described further; also called APP-YFP; source: HEK293, transfected (APP770-YFP pcDNA3.1), in lysate or in living cells
Assay: FRET or BRET; FRET acceptor bleaching in co-transfected HEK293 cells (YFP and CFP fusions); FRET efficiency from photobleached regions of interest; the negative control's value used as cut-off
Details: partners not purified

APP770-YFP, sequence (P05067 18-770): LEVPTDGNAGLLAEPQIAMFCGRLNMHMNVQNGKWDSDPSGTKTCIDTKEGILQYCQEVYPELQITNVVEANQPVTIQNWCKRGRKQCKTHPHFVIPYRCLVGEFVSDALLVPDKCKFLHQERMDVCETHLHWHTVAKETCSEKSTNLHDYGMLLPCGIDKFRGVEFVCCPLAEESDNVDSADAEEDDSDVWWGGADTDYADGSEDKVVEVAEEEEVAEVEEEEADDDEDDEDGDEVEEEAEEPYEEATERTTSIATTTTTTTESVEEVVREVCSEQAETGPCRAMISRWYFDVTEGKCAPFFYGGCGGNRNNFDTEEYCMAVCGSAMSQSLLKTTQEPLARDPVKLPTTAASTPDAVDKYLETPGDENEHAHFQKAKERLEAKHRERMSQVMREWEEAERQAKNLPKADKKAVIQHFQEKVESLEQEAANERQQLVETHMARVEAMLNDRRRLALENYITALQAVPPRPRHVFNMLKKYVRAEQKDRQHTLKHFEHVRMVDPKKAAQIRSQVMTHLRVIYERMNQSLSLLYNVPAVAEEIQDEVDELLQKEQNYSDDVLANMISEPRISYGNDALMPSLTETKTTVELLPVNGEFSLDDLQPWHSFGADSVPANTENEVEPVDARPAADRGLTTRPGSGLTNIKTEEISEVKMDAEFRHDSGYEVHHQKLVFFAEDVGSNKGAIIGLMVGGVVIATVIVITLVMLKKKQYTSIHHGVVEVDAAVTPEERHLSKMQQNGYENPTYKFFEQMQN

B1: Sort […]-CFP (domain or fragment, human)
chain: [about 700 residues left out]SVPIILAIVGLMLVTVVAGVLIVKKYVCGGRFLVHRYSVLQQHAEANGVDGVDALDTASHTNKSGYHDDSDEDLLE
notes: The forward primer adds a start ATG before the stretch; source: HEK293, transfected, in living cells; not shown: CFP (vector pECFP-N1), C-terminal, kept
B1 was tested, and the FRET efficiency was 25%.

B2: Sort […]-CFP (domain or fragment)
chain: not shown
notes: as for B1
For B2, the FRET efficiency was 15%.
